Laboratory results published in the supplement of paper PMC12632987.
Whole data set: some 2,300 sequences, median “median log2 fold change of GCK-ALFA target abundance (FLAG IP / Myc IP barcode read proportion)” near 0.095, cut for the lowest 2% near -0.47. Some of the results follow.

B1: LC3A_23_620 (protein)
chain: MIKIEVEVDLLVPAAEADAKLATMRATAEAAIEKLKDKIEKSELEFEREELPDGTVFLRARITLYTNVSMEEAKEIANEIVSAFSEALPDAVISYEVEEL
B2: LC3A_132_246 (protein)
chain: SEEEYKKALAELKEIIDKIVELLKEGKDPLPAIVELEEKAREIAEKLSLEETEKLVEETIEYAEKRFEEELDPNDEEARRTLDIIEMLLEGVLIEKELRS
B3: LC3A_45_1920 (protein)
chain: MYRATVDLLVPRELLEKVLKTIRETAAELEAESGGALTFDLEGLEETAKKTINEEEVYLRLEIYGEDKDLVLDAADRIVDAIEEATGKNIAAMISFEELP
B4: LC3A_3_1411 (protein)
chain: LEERLAATEALLREAGHSEETLAAFRRLVELLLERGAEEEAERVLELVAEAKDISSEDLLAVLEEVIRALEEEGASPEEAVERLEELLRIARAEQEIEEL
B5: LC3A_102_126 (protein)
chain: KVEELKKKLLEKVRKEVKKLLEEDKSLSEEEKEKILKLAEELARKRLENEEIEIQHGFVDINLEDEALKLREELEKIDPELAKKIEEIIEKGVEEFRKEL
B6: LC3A_free_8_2509 (protein)
chain: IPQSVVDELVAKLDEMEEELVKKLKELGASRLDILEIEILIGSAIAEVYDLSDDSMETLLKSLEDSLKEIIEEAKKISEEVAELAEKHSKEILEALKAAM
B7: LC3A_free_46_2378 (protein)
chain: YKIEIDVYFSAMSKEKAEEAAKEIKEAAEKISKETGVKIKVEVKIITDENGETWLEVKITIEGEDEEKVKAAATKLVDKLEEIAEKHGVSLIISIEEIKE
B8: LC3A_28_809 (protein)
chain: SEAEKIIAAIRAQAEALRDSEDLALIEVDISGTITVEEAEAIMAEVEREAARLAKRRKVAVVINFTEPVSQEVLDTVMDRAEAIEEKYPNVSVIIALPEE
B9: LC3A_17_544 (protein)
chain: MEELKKELEKLLKKLEELVKELEKYDPEKAKKLKKQLEEAKKLIKAGKLREAAELLAKAAREAADAFEKLEPKYGTKASVLAMEASGLELEAIRILLKLE
B10: LC3A_3_1885 (protein)
chain: MEEEIEETIKLLKEAGASEETIKAFKEVIKLLKERGYEEAAKTLIEEVRELLDLPSELLLDFLKEVLETLLTEDLNEEELIEKIKEIARLTRNEGEIEEL
B11: LC3A_28_1316 (protein)
chain: SHIEKQLEKAEKEAEEAAAKGEDILLEVEVTGDTTLEEAEYMMDRLEEIAEKYAPKHKIDIIINVDGDVSQEVIDLIADRAEEIEEKYPNVTVIIALDEN
B12: LC3A_free_46_2387 (protein)
chain: AEGYIDALASPADLETIEKLAEESKKAVEAVAEKYGVKVEVEVEIIKNESGLYELYIRVKIEGDDLETVEKAADAIVEELEAIAAEHGVKLAAIISFEET
B13: LC3A_28_1299 (protein)
chain: MSLEEKLEEAIKKAKEAAAAGEAAVITIEVPGDADEEDIEKIKEALEEIAKILKDIPGSAIIIDIDKDVKEEHITKLMEKGEEIEKKYPNVTVIFALEER
B14: LC3A_free_39_2250 (protein)
chain: SAEELEEALRRAEEVAETLDEETAKAFRELIELVKDNPEAIEAVTEGVEKLKEEGGDVLEFLKEAKELVLKMQKAGKSKEEILKEIKELIEDYLNLIPLD
B15: LC3A_28_1246 (protein)
chain: SAIDEQLAAAKAAAEAAKAAGEEALIELTVTSEATEEDIDKIIAAMEEIAELTKDLPALSIVVNLEKGVKQEHIDKLMEAGEEIEEKYPNVTVIFALEEE
B16: LC3A_free_8_2444 (protein)
chain: STQKLVDEVTELLDEMEERVEEKAKELGLSELDILDLSLLIGSLIAEIISAVDKSIEEIRKIVEEDMEEIIEEARELSEEIAEIVEETKERILELIDEAE
B17: LC3A_28_1279 (protein)
chain: SEIEENIKEAIAKAKEAKAKGEPAVIEIKVPGNATEEEIKKVIEGLKEIAEILKDIPNQAIIIDVDSGVKQEHIDKLADEADEIEKKYPNVTVIIALDED
B18: LC3A_28_1015 (protein)
chain: SELDEQLEAIRKEAEEAIAKGEDVVLTLTIKGSMSDEEVREAMERLREIVLEAAKKGKVDLIIDLDASVSQEKRDIVFESADEIEEEAPNVNVIIALEER
B19: LC3A_45_1975 (protein)
chain: MVKAKVTIWVKREYAEEVKEALLKKMEELEKKYGDKLKVDKEALLKSYEATKNDEFVELEVLIEAETEELLNEAVDAIIDTLDEVGDHKVAMIEIEKLEP

Target: MAP1LC3A, Q9H492
Test: median log2 fold change of GCK-ALFA target abundance (FLAG IP / Myc IP barcode read proportion) (log2 ratio); each designed protein is fused to an ALFA-tag nanobody in HEK293 cells to bring the named protein to FLAG-tagged glucokinase (GCK); Myc marks an untargeted standard; higher = target protein stabilised (more abundant)
Details: target protein: 3xFLAG-MCP-GCK-ALFA reporter; HEK293 landing pad (RPLP)
Method in brief: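 Sequencing of reverse-transcribed, amplified circular RNA barcodes from anti-FLAG and anti-Myc immunoprecipitates provided the readout for an ALFA-nanobody-fused binder library recombined into HEK293 landing-pad cells. Those cells were induced with 2 μg mL^−1 doxycycline, transfected with a plasmid expressing a FLAG-tagged target and a Myc-tagged standard, and lysed after 48 h. Target abundance is the per-binder median log2 ratio of FLAG to Myc barcode read proportions. Only barcodes at a proportion of ≥10^−7 in both replicates and binders with ≥3 barcodes per replicate were kept, with a 10^−6 pseudocount added before the two replicates were pooled.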

| Binder | median log2 fold change |
| --- | --- |
| B1 | -0.338 |
| B2 | -0.415 |
| B3 | -0.00751 |
| B4 | 0.212 |
| B5 | 0.0677 |
| B6 | -0.17 |
| B7 | -0.0158 |
| B8 | -0.126 |
| B9 | 0.0592 |
| B10 | 0.165 |
| B11 | 0.195 |
| B12 | 0.0115 |
| B13 | 0.0449 |
| B14 | -0.0415 |
| B15 | 0.137 |
| B16 | -0.324 |
| B17 | -0.0107 |
| B18 | 0.0418 |
| B19 | -0.0771 |
